The results in this text go back to article PMC4336329 (PLoS ONE, 2015).

The structures appear in SMILES notation. The whole screen tested about 310,000 compounds, of which about 2,200 (0.71%) showed an effect of 50% or more. The effect is printed as a negative number. Some of the results follow.

This assay deals with human ether-à-go-go-related gene (hERG) potassium channel (human, UniProt Q12809). As to the kind of experiment: primary screen, population patch clamp on CHO cells stably expressing hERG.
human ether-à-go-go-related gene (hERG) potassium channel, sequence (Q12809 whole entry, looked up): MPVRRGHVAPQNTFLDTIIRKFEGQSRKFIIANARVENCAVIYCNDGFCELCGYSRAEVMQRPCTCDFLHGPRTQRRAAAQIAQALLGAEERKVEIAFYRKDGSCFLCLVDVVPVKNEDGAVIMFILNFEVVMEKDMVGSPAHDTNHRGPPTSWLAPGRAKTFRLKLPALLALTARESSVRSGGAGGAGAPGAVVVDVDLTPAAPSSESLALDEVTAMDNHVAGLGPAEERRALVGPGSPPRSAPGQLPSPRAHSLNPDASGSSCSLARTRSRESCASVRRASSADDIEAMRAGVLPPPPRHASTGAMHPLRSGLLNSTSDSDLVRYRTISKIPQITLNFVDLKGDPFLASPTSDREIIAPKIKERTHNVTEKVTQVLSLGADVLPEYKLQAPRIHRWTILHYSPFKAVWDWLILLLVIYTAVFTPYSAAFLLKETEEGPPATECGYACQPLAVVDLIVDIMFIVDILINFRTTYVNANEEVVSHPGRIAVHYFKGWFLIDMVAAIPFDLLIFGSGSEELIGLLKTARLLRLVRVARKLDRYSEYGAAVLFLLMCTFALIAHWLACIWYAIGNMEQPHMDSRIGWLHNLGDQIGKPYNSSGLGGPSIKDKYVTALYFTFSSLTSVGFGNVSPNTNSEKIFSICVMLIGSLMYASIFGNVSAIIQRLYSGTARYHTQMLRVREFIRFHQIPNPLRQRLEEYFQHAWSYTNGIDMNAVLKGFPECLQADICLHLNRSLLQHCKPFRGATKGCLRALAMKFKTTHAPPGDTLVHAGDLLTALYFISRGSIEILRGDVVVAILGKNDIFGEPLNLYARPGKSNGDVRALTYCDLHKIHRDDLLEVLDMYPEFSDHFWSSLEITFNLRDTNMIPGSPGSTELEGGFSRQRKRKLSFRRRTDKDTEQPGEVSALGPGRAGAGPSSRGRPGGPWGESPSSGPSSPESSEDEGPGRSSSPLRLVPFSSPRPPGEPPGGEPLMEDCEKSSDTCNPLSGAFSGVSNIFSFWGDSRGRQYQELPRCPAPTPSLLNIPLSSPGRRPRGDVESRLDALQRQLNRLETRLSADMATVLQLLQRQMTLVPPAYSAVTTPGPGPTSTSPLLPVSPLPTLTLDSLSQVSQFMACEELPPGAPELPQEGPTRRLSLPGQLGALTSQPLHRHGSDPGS
Consider `O=S(=O)(c1cccs1)N1CCN(c2ccccc2)CC1`, for which the “hERG current change (%, negative = inhibition) at 1uM” value was determined as 13.3%.
For the compound `CC(Sc1ncc(C(F)(F)F)cc1Cl)C(=O)NC(N)=O` (centres unmarked), the “hERG current change (%, negative = inhibition) at 1uM” value came out at 1.35%.
As to `CCc1cccc(CC)c1NC(=O)C1SC(=Nc2ccccc2C)C(c2nc3ccccc3s2)=C1N` (centres unmarked), the “hERG current change (%, negative = inhibition) at 1uM” value was found to be 20.2%.
With `O=C(c1cnn2cccnc12)N1CCN(c2ccccc2)CC1`, the “hERG current change (%, negative = inhibition) at 1uM” value is given as 19.5%.
As to `CCOC(=O)C1(Cc2cccc(OC)c2)CCN(Cc2ccccc2)CC1`, the “hERG current change (%, negative = inhibition) at 1uM” value is recorded as -7.08%.
To `COc1ccc(CNC(=O)CC2(CC(=O)O)CCCCC2)cc1` belongs 14.9%.
Consider `COc1ccc(Br)cc1C(=O)N/N=C/c1cccnc1`, for which the “hERG current change (%, negative = inhibition) at 1uM” value is listed as 6.48%.
For `CCCCOc1ccc(CSC(=N)N)cc1[N+](=O)[O-].Cl`, the “hERG current change (%, negative = inhibition) at 1uM” value is listed as -26.4%.
To `Cc1nn(CC(=O)Nc2ccccc2)c(=O)c2ccccc12` belongs 7.11%; to `C=CCNC(=O)/C=C/c1c(F)cccc1Cl`, 4.39%.
To `CC(=O)N1CCOc2ccc(S(=O)(=O)Nc3cccc(C)n3)cc21` belongs 11.7%; to `CC(NC(=O)c1ccc2ccccc2n1)c1ccc(Br)cc1` (centres unmarked), 17.3%.
To `COc1ccc(CCNC(=O)C(=O)NCC2OCCN2S(=O)(=O)c2ccc3c(c2)OCCO3)cc1OC` (centres unmarked) belongs 15%.
`Cc1ccc(-n2nnnc2Sc2nc([N+](=O)[O-])nn2C)cc1C`: the “hERG current change (%, negative = inhibition) at 1uM” value is recorded as 10.3%.
To `O=C(CN(Cc1ccccc1)S(=O)(=O)c1ccc(S(=O)(=O)N2CCOCC2)cc1)Nc1ccccc1` belongs -10.3%; to `CCCn1c2ccccc2c2cnn(CC(=O)NCCCN3CCN(c4ccccc4)CC3)c(=O)c21`, -1.53%.
The figure for `O=C(NC1CSC/C1=N\O)c1ccccc1` (centres unmarked) is 11.3%; for `COc1ccc(OC)c(S(=O)(=O)N2CCN(CC(O)CN3CCOCC3)CC2)c1` (centres unmarked) it is 14.9%.
To `COc1ccc(C(=O)NCCNc2nc3ccc(C)cc3cc2C#N)cc1` belongs 11.9%; to `C=CCn1c(CCC(=O)Nc2ccc(C)c(Cl)c2)nnc1SCC(=O)Nc1ccccc1C`, 12.2%; to `Cc1nn(Cc2ccccc2)c2c1C(c1ccccc1)C(C#N)=C(N)O2` (centres unmarked), 12.5%.
As to `O=C(COc1cccnc1[N+](=O)[O-])NCCc1ccccc1`, the “hERG current change (%, negative = inhibition) at 1uM” value worked out at 10.3%.
Take `COc1ccc(OC)c(-n2c(SCC(=O)N3CCc4ccccc43)nc3c(c2=O)SCC3)c1`: the “hERG current change (%, negative = inhibition) at 1uM” value is listed as 5.9%.
As for `Cc1ccccc1Cn1nc(C)c(NC(=O)c2noc3c2CCCC3)c1C`, the “hERG current change (%, negative = inhibition) at 1uM” value turned out to be 8.66%.
Turning to `COC(=O)c1ccccc1Sc1c(/C=N/OC(=O)c2ccccc2)c(C(F)(F)F)nn1C`, the “hERG current change (%, negative = inhibition) at 1uM” value came to 9.75%.
With `CCOc1ccc(Cl)cc1S(=O)(=O)n1nnc2ccccc21`, the “hERG current change (%, negative = inhibition) at 1uM” value is listed as 10.5%.
Consider `CCOc1ccc(C2(C)NC(=O)N(CCN(C)C)C2=O)cc1` (centres unmarked), for which the “hERG current change (%, negative = inhibition) at 1uM” value turned out to be 15.1%.
In the case of `Cc1cccc(Nc2nnc(SCC(=O)NC(=O)Nc3ccc4c(c3)OCCO4)s2)c1`, the “hERG current change (%, negative = inhibition) at 1uM” value is recorded as -13.9%.
As to `COc1ccc(C(=O)OCc2nc(N)nc(Nc3ccccc3C)n2)cc1OC`, the “hERG current change (%, negative = inhibition) at 1uM” value came to 16.2%.
On to `Cc1ccc(NC(=O)COC(=O)Cn2c(C)csc2=O)cc1C`, for which the “hERG current change (%, negative = inhibition) at 1uM” value is 5.34%.
For `CCN(CC(=O)Nc1c(F)cccc1F)C(=O)c1ccc(-n2cncn2)c([N+](=O)[O-])c1`, the “hERG current change (%, negative = inhibition) at 1uM” value worked out at 12.9%.
Turning to `C1CCC(c2nn3c(-c4n[nH]c5c4CCC5)nnc3s2)CC1`, the “hERG current change (%, negative = inhibition) at 1uM” value came to 3.03%.
In the case of `O=C(NCc1ccco1)c1ccccc1NC(=O)C1CC(=O)N(c2ccc(Cl)cc2)C1` (centres unmarked), the “hERG current change (%, negative = inhibition) at 1uM” value was -21.6%.
To `COc1ccccc1N(C)S(=O)(=O)c1ccc(C(=O)NCCc2ccc(F)cc2)cc1` belongs 10.1%.
As for `CC(O)[C@H]1CC[C@H]2[C@@H]3CC[C@H]4C[C@@H](O)CC[C@]4(C)[C@H]3/C(=N/O)C[C@]12C` (some centres unmarked), the “hERG current change (%, negative = inhibition) at 1uM” value worked out at 12.3%.
The figure for `C=CCn1c(C)cc(C(=O)COc2ccc(S(=O)(=O)N3CCCC3)cc2[N+](=O)[O-])c1C` is 10.1%; for `CCOC(=O)[C@H]1[C@H]2COc3ccc(C)cc3[C@@H]2N2C(=O)c3cc(F)c(F)cc3NC(=O)[C@@]12C` it is 11.1%.
For `CCOc1ccc(NC(=O)CN(C)C(=O)c2cccnc2Sc2ccc(Cl)cc2)cc1OCC`, the “hERG current change (%, negative = inhibition) at 1uM” value is reported as -5.81%.
With `Cc1noc(C)c1COC(=O)CN(C)S(=O)(=O)c1ccc(Cl)cc1`, the “hERG current change (%, negative = inhibition) at 1uM” value worked out at 10.9%.
The figure for `CCOc1ccc(C(CCc2ccccc2)NC(=O)c2ccc(OC)c(OC)c2)cc1OCC` (centres unmarked) is 8.29%; for `Cc1ccc(S(=O)(=O)N(C)C)cc1N` it is 7.47%.
Regarding `CCN(CC)S(=O)(=O)c1ccc2oc(Nc3ccccc3)nc2c1`, the “hERG current change (%, negative = inhibition) at 1uM” value is on record as 14%.
As to `COC(=O)c1ccc(C(NC(=O)OCc2ccccc2)/C(F)=C/[C@@H](C)C(=O)NCc2ccc(OC)c(OC)c2)cc1` (some centres unmarked), the “hERG current change (%, negative = inhibition) at 1uM” value stood at 12.3%.
The figure for `CCOC(=O)C1=C(O)/C(=C/c2ccc(OCC(=O)O)c(OCC)c2)SC1=Nc1ccc(OC)cc1` is 18.5%; for `Cc1ccccc1Nc1nc(N2CCOCC2)nc(N2CCOCC2)n1.Cl` it is 48.2%.
To `COc1ccc(-c2nc(NC(=O)C3CC(=O)N(Cc4ccco4)C3)sc2C)cc1` (centres unmarked) belongs 5.21%; to `CC(=O)NNS(=O)(=O)c1scc(S(=O)(=O)c2ccc(Cl)cc2)c1C`, 12.1%; to `CCOc1ccc(NC(=O)N2CCC(n3nnc4ccccc43)CC2)cc1`, 0.631%.
For the compound `C[C@@H]1CCC(=O)N(C[C@@H](C)CSc2ccc(Br)cc2)CC1`, the “hERG current change (%, negative = inhibition) at 1uM” value is given as 10.6%.
The figure for `CCOc1ncccc1C(=O)N1CCN(c2ccc(C(F)(F)F)cn2)CC1` is 1.54%; for `O=C(c1ccc2c(c1)OCCO2)N1CCCC(CNS(=O)(=O)c2cccs2)C1` (centres unmarked) it is 4.47%.
Consider `O=C(N/N=C/C(Br)=C/c1ccccc1)c1cccs1`, for which the “hERG current change (%, negative = inhibition) at 1uM” value worked out at 8.41%.
To `COc1ccc(S(=O)(=O)N(CC(=O)N/N=C/c2cccs2)c2ccc(C)cc2)cc1OC` belongs 6.58%.
